According to article PMC10726135:
Some of the results follow. At the low end of the ranking, values are background and their order means little. The protein was read in a cell extract, so binding may be indirect.

Each sequence was assayed against T1, HNF4alpha8 (COS-7 nuclear extract) (UniProt P41235-5) (assay: protein-binding microarray). Conditions: COS-7 nuclear extract on double-stranded Agilent 4x180k PBM; binding buffer, salt, pH and temperature not given; high values mean tight binding; double strand, one strand shown; sequences stand for … in …GCCTAGGGAGATTAGAGTATCGGTCGA.
T1 sequence: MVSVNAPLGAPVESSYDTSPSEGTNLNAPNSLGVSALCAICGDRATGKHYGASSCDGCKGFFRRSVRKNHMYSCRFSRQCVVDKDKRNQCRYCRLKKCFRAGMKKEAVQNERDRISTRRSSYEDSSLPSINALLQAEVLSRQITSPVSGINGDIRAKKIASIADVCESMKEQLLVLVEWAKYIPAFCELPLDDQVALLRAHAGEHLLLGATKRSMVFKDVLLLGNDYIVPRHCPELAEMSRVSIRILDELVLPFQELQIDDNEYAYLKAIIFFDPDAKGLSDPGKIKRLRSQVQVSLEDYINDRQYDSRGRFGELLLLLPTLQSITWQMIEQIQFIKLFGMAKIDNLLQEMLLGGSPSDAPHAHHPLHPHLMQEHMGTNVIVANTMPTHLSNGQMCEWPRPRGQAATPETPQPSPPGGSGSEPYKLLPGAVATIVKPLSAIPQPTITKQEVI

Sequence | binding signal (log2 normalized intensity)
TCTGAAGATAAATGCCTTAGCTGTGACCAT | 0.412
GCAGGGGATGCCCTTTGACCTCTGCTTCCT | 8.67
AGGAAGTGTGCACAAGTCCTCACAATAATG | -1.2
GGCCCTCTAGTCTAGTCCAAACTGCAACCT | 1
ATGGGGACTTTGGACTCCTGTTTGAACAAA | 5.69
GCAGACTTGGATTTTCTCATCCCAGGGATA | -1.02
AAACCAAAGCTGGAGTGCAGTCCCCGGCTG | -0.88
ACAATGGCATTTCACAGAGCAAGGGTCCAG | 2.5
TGAGAGGAATGAGCAGGAACCTTGTGGTGG | -0.219
CCTGTTTGCTTCTGCCCCCTGGAGGAGCAA | 3.1
GGGCCATTCCTCTATCTCCCTGTGACCTCC | 4.2
CGGCATTCTCTGGTCTGCGGTTGTGTAGAC | 0.867
AAGATAATGACTAAGGCAGGGAAGGAGAGT | -1.37
CAGTCACAGCAGTGGACTTTGACCTTGGCA | 9.69
CACCCTGCTGTAAATAAAATGAGATTCCTT | -1.08
CAGAAGACCCTTGGCCTCTACAGCTACTCC | 0.572
TGGCATGTATAATGACACTAGCAGAAGAGA | -1
TCAGAGATCAAGATACAGGTCAGACCCTGG | 1.48
AAACAAGGCCAAAGTCTGGCAAATGAAATG | 0.295
TGAGGGAGGGAGGAGGGACTGAACAGATAT | -1.32
ATAGTTGACCCTTGAACAATGTGGGGGTCG | 4.63
GTAAGGCCCGTGAGATTGAAAGCTAAGGCA | -1.37
GAGGGTGGGTTCAAAGGTCAGAAAAAGCTG | 7.27
TAATTCTTCTTTGAAAGTTTGGTGGACTTT | 6.91
TTGACTGAGGTGCAGGACAAAGTGTGCACT | 1.38

Sequence | binding signal (log2 normalized intensity)
GGGGGCGTTCCCCGAGCGAGCTCCGTGCGG | -1.26
AGTTTTAGAGTCAATACTCCACAAGACCAC | -1.36
AGAATGAGGGGCAGGCTTAGCTGGGCTAGC | -1.37
AAGCCAATCTCTCAAATCTAGCCAATGATG | -1.13
AGACTGAACAATTATTGCCTGGCATCTAAC | -1.17
GAAACCCCTGTAAGTCCAAACAAAATACAA | -1.16
TATCTGTTGTCAAACCCACATTCTTCACTG | -1.33
CCAAGGGCTGTAGCAACCAAGTACCGCAAA | -1.29
GCCAACAACTAGGGCAAAGGTTAGCTTGGA | 4.82
GATAGTGGTTCCATTGTCCTACAGGACATT | 1.02
AGGATGGGCCATGACCTTTACCCCCATTTG | 8.39
TACCAAGGCTCAGAGGTCAAGTCACTGCTC | 3.09
GGGTGAGGGTGAGGGTTAGGGGTTAGGGTT | 1.39
TGCTAAGTGCCATGTAATCAAACTGAACTT | 2.1
CCACCTGCTGGTCAGGAGACTGCTCGGCAT | -1.17
ATTGTTATTTACGGTGGGCACCTCATACTA | -0.547
TTCAAATGAGGGCAGGATGCATGCACTTCA | -1.17
AGGTCAGAGGTGAGAGCAGAATGAGCAAGG | -1.29
CCCCTCCCCCAAGGCATGGGACCTTTGCCC | 7.34
GCTCCAGCGGGGTTTGAATCCCGGGAATCC | -1.18
GGCAAGCAAGTGACATGTTGGTGGGGGTGG | -0.0615
GTCTGCCCAGAGCGGCAGCGCCTCCCGGTC | -1.32
TCCTGGCCTCCACTCCTCCTCCTTCCCTCC | 0.827
GGAAACTGCTTTGGTTAATCATTAGAGATG | 1.1
TTTGCTCTGCTACTAACTGCATGACTTCAG | -1.29

Sequence | binding signal (log2 normalized intensity)
CGCCGCCTCTGCCTCTTGACCCCTTGGCCC | 5.9
TCCTGAGTCCACATGAGCCTCTTTATCTCT | -0.141
TCGACTTCCTCTTCATATCAGTAAACCCCA | 4.87
GTTTCAGCCTTATTCTTTGATCTCTTATCA | 0.796
GGTTATTTCAATTACAAAGCAACACAATGC | -1.27
GTGTAAAACAGGTGAAAGATAAGGGCTAGT | -1.25
ACAAGCCCGGCTTTGGGCTTGAGCAGCTGG | -1.36
CCTCCCAGCCTGGAGGAGGGCGAGGCCGAG | -1.27
GCGACCCAGGCAGCCCCTTTGCTCCACACA | -1.14
CTGGACCTCATCTTCCTCCCCAATATGGTC | 2.48
GTAGGGCCCCCAGCCAGGCCCCAGGCCAAC | 3.98
CTCCACTTGGGTATCAGATAGTCCAATGTC | 2.52
ACCTGCTGGAATGTTTCAAGTGGCCTGATT | 1.21
TGGACAGCAGACAACTTTTCCTCTAACCAC | -1.39
GCTCCATACTCCTTATCTTGGCTGTAAGAT | 1.06
CTACATTCTAGATGACCCCTCTCTACTGGT | 4.03
TACCTGTACGTTACTCTGTACCTCGTGGGT | 1.92
ATTCCAGCTATTCTGCCTTATCAGCGGCCC | -1.22
GATTAGAGAGCAGGTGATAAGGAACTGTTA | -0.81
TCTTCTTCACCGGAGATTTACATTCCAGAG | 0.859
GACACCAAAGGTCACGTTCCAGCTGCTTCA | 2.65
CCTCCTGCTTAGCGGCCTTCCCCTTTTTCT | 1.99
AAAAGTCCAGCTGCCAGGGAGACAAAGTGT | -0.653
AATAAACTGAGGGGTGGGGACCAGTGGGGG | -1.22
TGGGGATAAACACCCCCATCTATGCACTCT | 0.825

Sequence | binding signal (log2 normalized intensity)
GCATGCCTCCCAGAGCATTGTTTATTGTTG | 1.11
GGCATTGTGTTACGTCTGGTTTCTTATCTT | 1.26
GGGCAAAGGTCAGGATCTCAGCCGCGCGGC | 4.79
AGAAAGACATGTTTCTAACTGCCCGCATTC | 0.219
CAGTTAACGGGGACGCTTTAGAGAAACGCA | -1.2
CGGCAGAACTGGTGACCGGACACAAAAGCT | -1.24
AGGTAACGTAAACAAGTAAGGAAGACAAGA | -1.27
CAGCTTTGAAGTGCTTCCTGTGTATTTCTT | 1.27
TGGGACTGGCAAAGCCATGAAGCAATTCTG | -1.39
CTTAACTTGGTTTCCCTGGAAACAGATAAA | 0.246
CTGCCATAAACTTCTCCCCCACATGGAAAC | 4.03
AGCTTGCTCTCACCAGCTTCTTCTCTTTGA | -0.143
ACACTGCCATTTAAAAGTTTCCCTTGATCA | 0.293
ACACAGACACACATGAGCTAGTGCTAAAGG | -1.09
GGCGGCTAGTGTACAGGTGACCTTTGGAAT | 9.41
CTATAGAGGCAGTGAGCCTTGCCGTGCTGC | -1.22
TACATAACAATGCAAGATAAAAGTGAGCAA | -1.26
TGACTGAGCTCGCGCCGGGCACTGATAACG | -1.23
TGGCTTGGAACTGACATGCTGTCACTTCTG | -1.26
TCTTGTGGCCATTTGGGAAACCGCGATTAA | -1.26
CCCTGGGGGTGGGGGTGTGGGTAGCAGCTG | -1.24
CTCCCACATCTTTAATTATCATCTCTGTGT | 2.16
CTGTGAAAGAAAAGTACTTTAGTGTATTGT | 1.44
GGATAGCGTCATCAGTCCAGGAGGGTCACA | 2.05
TGTCATACTGGTTGAATGGACGGACAGGTA | 1.77

Sequence | binding signal (log2 normalized intensity)
CTCTCTTAACAGTCTGTTATCCCTAGGAAG | 1.34
CCTCGCCTATGGTATGTATGGAATGTCACT | 1.77
TAATTTTGCACAGCCAGCCTGAGGCAGTTG | -1.29
AGGAATGTGAAATGAATTTACAAACAAATG | -1.3
ATACAACTAGGCTACATGATACAGCCTTTT | -1.24
TGGGAAGCTGGCACAGCAGATGCTGGGCAA | -1.32
AAGAACATTCCAGCTTTGAAGTGCTTCCTG | -1.32
GAGGAGCGCATCGGGCGCCAGCGCCCCCGT | 0.802
TCTGGGTGGGGGTGGAGGCAGCAGCTCCAA | -1.33
TTTGGCCTGCTGAGCCCAATCTAGCAAAAA | -1.33
GTGGCTCACAAATGGAGTTTGGTTTAAAGT | 1.68
GGGATAGGCAGGAGTTAACTAACAAAAGCA | -1.21
TGACCTTTGCATTCTTACCCAAGCCCCAAA | 4.12
CCCCTTGATGCATCAGACCCCTGAGTTTCG | 3.21
TGACAGTCCAAGGACTCAATGATACCATCA | -1.31
GACTTTGAACTTCATGTGTGGTGCAGATTC | 2.1
ACAAATGAGGGGACAAAGTTCGTGGAAAGT | 3.45
TCATTCATCCAAGGACTTTGTAATCATATT | 2.92
AAGGCCGGAGGGCGGGGCGGGGCAGCAGGG | -1.28
GTTCACCTTTCCCTTCTTCTCCTCCCAACA | 2.62
CTTATTATCTTCAATGATAAGGAATGAGGA | 0.71
ACCTCTGCTCCCAAAGCAAACCTCCCCAGC | 3.78
CACAGAAATCCAAAGGTCAACAGCCAGCCT | 4.24
ACAGGTTTCTGTCCTGGTCACAGTAACAGG | 0.552
ATAGATAAGAAAGGCTACAAAGGTGACTTG | 0.716

Sequence | binding signal (log2 normalized intensity)
CCGGCAAGTCTGAAATCTACAGGACAGCCA | -1.26
AGGTGGTTCTTTCTGAGTTGCATGAATTTA | 1.04
TGTTCTCTTGGCCAACAACTAGGGCAAAGG | 3.55
AACTGTGGACTCGCTGCCTTTTATCCCTTT | 1.61
TATACAAGAAAGAAAGAATGTTTGCTTCTG | -1.28
CAGCTGTTATCTCTTTTGTGATAGAATGAA | 1.89
TGCAGTTTCCCTATTCTCAGTGATATAAAA | 0.942
AAGAGGCTCTAGATCTCAAAGTCCAAATAG | 5.17
CATATCACAGGAGAAAACAGCACAAGCAAT | -1.25
GACTCTTGGGCAGTCTAAAGTCTGATCCCA | 2.65
GGATGGGGACAAAGGTCAAGAAAGCTTTTG | 6.2
TTAAAGAATTTTTCCCCTAGTTACAACTGT | 1.49
TCTAGGAACCTTTCTCCATACCTCTTGCGT | -0.849
ATCAGCAAACACAGATAGCATAATCAAAGA | -1.33
GGATGAAGGCTGCTGCCTGAAAGGCCAAGC | -1.25
GAATATTTATCAGATACAGGAGATCAGATG | -0.118
CGCCTTCATTCCTAGCCCCACCAAACTGAC | 3.88
ACCTTTGGTCTTTGGTGAAACTCCACTACA | 0.804
AGGTAGAGTCTAAGGCTAAAACATCCTGGG | -1.24
ATTGATGGTTTTATCAGCTGAGGCCATTGC | 0.889
